Results published in PubChem BioAssay AID1645882 (National Center for Advancing Translational Sciences (NCATS), 2021).
Hit rate of the full screen: of about 16,000 compounds, about 120 (0.75%) were called active. Another 4% or so got no clear call; they are omitted. Calls come from the whole dose curve; as a rule, active = well fitted inhibition curve with a large enough effect; inconclusive = small, poorly fitted or top-dose-only effect; inactive = no such curve, though single readings can be large or run the other way. The list shows a part of the results.

biological target: Rap guanine nucleotide exchange factor 3 (Homo sapiens) (UniProt O95398); assay: Validation qHTS for antagonist of cAMP-regulated guanine nucleotide exchange factor 3 (EPAC1); settings: EPAC1 Rap1B-BODIPY-GDP exchange, fluorescence; series mostly up to 150 µM; activity change, negative = inhibition: at the top concentration;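 note: plate controls were DMSO for no effect and ATA control for full effect; nearly all actives have a fitted effect of over 75% in size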
UniProt O95398, sequence (O95398 whole entry, looked up): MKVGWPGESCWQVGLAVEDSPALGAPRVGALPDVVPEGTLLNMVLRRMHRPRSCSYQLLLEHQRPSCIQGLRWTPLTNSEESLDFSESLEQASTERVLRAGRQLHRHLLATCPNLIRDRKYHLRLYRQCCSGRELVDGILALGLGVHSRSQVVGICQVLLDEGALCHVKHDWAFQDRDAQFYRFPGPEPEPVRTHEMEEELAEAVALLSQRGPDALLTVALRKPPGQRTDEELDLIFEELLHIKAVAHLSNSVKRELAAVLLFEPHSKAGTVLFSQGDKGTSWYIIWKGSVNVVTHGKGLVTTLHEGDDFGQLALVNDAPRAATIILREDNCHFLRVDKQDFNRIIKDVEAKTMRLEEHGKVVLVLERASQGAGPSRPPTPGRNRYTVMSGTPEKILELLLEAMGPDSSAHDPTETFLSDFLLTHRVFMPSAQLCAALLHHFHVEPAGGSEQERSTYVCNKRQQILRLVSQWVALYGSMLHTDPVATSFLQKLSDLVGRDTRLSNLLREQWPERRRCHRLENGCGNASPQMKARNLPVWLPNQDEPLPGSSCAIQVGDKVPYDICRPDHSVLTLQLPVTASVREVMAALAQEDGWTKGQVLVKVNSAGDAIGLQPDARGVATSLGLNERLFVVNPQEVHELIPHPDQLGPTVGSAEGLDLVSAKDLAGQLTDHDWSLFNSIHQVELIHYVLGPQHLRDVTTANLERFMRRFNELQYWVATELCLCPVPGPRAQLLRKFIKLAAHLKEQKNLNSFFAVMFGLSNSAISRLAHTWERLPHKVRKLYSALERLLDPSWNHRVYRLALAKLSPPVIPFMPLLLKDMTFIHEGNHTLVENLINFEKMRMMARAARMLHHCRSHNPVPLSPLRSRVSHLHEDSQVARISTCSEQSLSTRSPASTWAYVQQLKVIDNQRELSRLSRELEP
Outline: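 Nucleotide exchange followed as fluorescence loss when BODIPY-GDP leaves Rap1B (480 nm excitation, 540 nm emission), read at 5 min intervals over 30 min. Reaction: 100 nM EPAC1, 250 nM RAP1B-BODIPY-GDP, 50 uM GDP; ATA and DMSO define normalization.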

Activity change, negative = inhibition, inactive:
O=c1c(-c2ccccc2)nc2cnc(N3CCOCC3)nc2n1-c1ccccc1 7.8%
O=c1ccn([C@@H]2O[C@H](CO)[C@@H](O)[C@H]2O)c(=O)[nH]1 17.3%
COc1ccc2[nH]c(-c3ccccc3)c(CCNC(C)=O)c2c1
COc1ccccc1C1CN(CCNC(=O)c2cnsn2)Cc2ccccc2O1 (stereo unspecified) -10.5%
CCOC(=O)C1=CC2(CC)CCCN3CCc4c(n1c1ccccc41)C32 (stereo unspecified) 9.86% [at 201 µM]
Cc1cc(-c2ccnc(-n3ncc(C(=O)N(C)Cc4nccs4)c3C)n2)c(C)s1 17.5%
CC(C)(C)c1ccc(C(=O)CCCN2CCC(OC(c3ccccc3)c3ccccc3)CC2)cc1
COCC(=O)N1CCC2(CCCN(C(=O)Nc3cccc(F)c3)C2)CC1 0.21%
CCCCCC(O)c1cccc(OCc2ccc3ccccc3n2)c1 (stereo unspecified)
C/C1=C/CC(C)(C)/C=C/C/C(C)=C/CC1 11.7%
COc1cccc(-c2coc3c(C)c4oc(=O)c(CCC(=O)O)c(C)c4cc23)c1 7.93%
CCCCC/C=C\C/C=C\CCCCCCCCCC(=O)O 0.107% [at 15.3 µM]
NC(Cc1ccccc1)C(=O)O (stereo unspecified) 17.1%
CNC(=O)Oc1ccc2c(c1)[C@@]1(C)CCN(C)C1N2C (stereo partly specified)
Cc1cnc(CNc2nc(-c3ccccc3Cl)nc3ccccc23)cn1 -12.7%
O=C(O)c1ccncc1 19.1%
O=[N+]([O-])O[C@@H]1CO[C@H]2[C@@H]1OC[C@@H]2O 6.19%
O=C(NCCCN1CCCCCC1)C(c1ccccc1)C1CCCCC1 (stereo unspecified) 4.66%
COc1ccc(C(=O)N2CCC3(CC2)CN(c2ccccc2)C3)cc1 -2.38%
COc1ccc(C2(C(=O)NCC3Cc4cccc(-c5nc(C)cnc5C)c4O3)CCCC2)cc1 (stereo unspecified) 6.42%
CN[C@H]1CCc2cc(OC)c(OC)c(OC)c2-c2ccc(OC)c(=O)cc21 18.9%
N#Cc1ccc(CN2CCCC3(CCN(C(=O)c4csnn4)CC3)C2)cc1 3.47%
Cc1ccnc(NS(=O)(=O)c2ccc(N)cc2)n1
O=C(Nc1ccc(Cl)cc1Cl)[C@@H]1CC=C[C@@H]2CCN(Cc3ccccc3)C(=O)[C@@H]21 -11.2%
NC(=O)OCC(COC(N)=O)c1ccccc1
Cc1nc2cnc(Nc3ccccc3)nc2n(Cc2cccs2)c1=O 17.8%
COc1ccccc1-c1cc(NCc2cnc(C)cn2)ncn1 11.1%
COC(=O)C1N2C(=O)[C@@H](NC(=O)COc3ccccc3)[C@H]2SC1(C)C (stereo partly specified) -2.56%
Fc1ccc([C@H]2CCNC[C@H]2COc2ccc3c(c2)OCO3)cc1 -6.41%
O=c1c(O)c(-c2ccccc2)oc2cccc(O)c12 -7.83%
Cc1cc(C(=O)O[C@H]2[C@H](C)NS(=O)(=O)[C@H]3C[C@@H]4C=C[C@]23O4)cc([N+](=O)[O-])c1 3.38%
C(=C1C=c2ccccc2=C1)c1ccc(N=Nc2ccc(C=C3C=c4ccccc4=C3)cc2)cc1 -0.575%
O=C(NCc1ccccn1)c1cnn(-c2nccc(-c3cc4ccccc4o3)n2)c1C1CC1 8.83%
COc1ccc(C[C@H](N)C(=O)N[C@H]2[C@@H](O)[C@H](n3cnc4c(N(C)C)ncnc43)O[C@@H]2CO)cc1 15.1%
[O-][n+]1cccc(CO)c1 1.71%
COc1ccc(CCNC(=O)C(=O)c2c[nH]c3ccccc23)cc1 -13.5%
COC(=O)c1cc(-c2c(-c3ccc4c(c3)OCO4)noc2-c2ccsc2)cc([N+](=O)[O-])c1 12.1%
Cc1nc(CC(=O)NCC2Cc3cc(F)cc(-c4ccc(F)c(C)c4)c3O2)cs1 (stereo unspecified) -13.7%
O=C(c1cccc(F)c1)N1CCC2(CC1)CN(c1cccc(-c3ccccc3)c1)C2 -4.46%
COCc1nc2c([nH]1)c(=O)n(C)c(=O)n2CC(C)C
CCCCCCCCCC[Si](C)(C)CCC(=O)NC(Cc1ccc(C)cc1)c1ccccc1 (stereo unspecified) -3.54% [at 75.8 µM]
CN1CCC(Nc2ncc3ncnc(Nc4ccc(F)c(Cl)c4)c3n2)CC1 18.7%
O=C1C(c2[nH]c3ccccc3c2O)=Nc2ccccc21 0.283%
Cc1cccc(CNc2ncncc2-c2ccccc2C(F)(F)F)c1 22%
CN(Cc1ccco1)c1ncnc2ccc(-c3ccc4c(c3)OCO4)cc12 -1.48%
COc1cc(CN2CCC3(CC2)CC3C(=O)Nc2ccc3sc(C)nc3c2)ccc1F (stereo unspecified) 10.3%
OC[C@H]1O[C@@H](n2cnc3c(NCc4ccccc4)ncnc32)[C@H](O)[C@@H]1O 8.34%
Oc1ccc(CCNCCCCCCNCCc2ccccc2)cc1O 19%
CC1=CC(=C(c2ccc(N)cc2)c2ccc(N)cc2)C=CC1=N -0.98%
COc1ccc(SCCN2CC[C@@H](C(C)(C)C)CCC2=O)cc1 -19%
C=CCN(c1ccc(Br)cc1C(=O)OC)S(C)(=O)=O 17.1%
COc1ccc(CN2CCC(=O)N([C@H](CO)Cc3ccccc3)CC2)cc1OC -23.8%
NCCCC(O)(P(=O)(O)O)P(=O)(O)O
O=C(Nc1ccccc1)N1CCCC2(CCN(C(=O)c3csnn3)CC2)C1 8.06%
O=C(c1ccncc1)N1CCC[C@@]2(CCN(c3ccncc3)C2)C1 11.1%
Nc1ccc(S(=O)(=O)Nc2cnc3ccccc3n2)cc1
Cc1ccccc1CN1CCc2nnc(C(C)NC(=O)C3CCN(C)CC3)n2CC1 (stereo unspecified) 7.51%
COCC(=O)N1CCC2(CCCN(c3ccccn3)C2)CC1 2.41%
c1cc2c3c(c1)CCC[N+]3(C1CCCCC1)CCC2 -21%
COC(=O)N[C@H](C(=O)N[C@@H](Cc1ccccc1)[C@@H](O)CN(Cc1ccc(-c2ccccn2)cc1)NC(=O)[C@@H](NC(=O)OC)C(C)(C)C)C(C)(C)C -9.94%
CC1(C)CC[C@]2(C)CC[C@@]3(C)C(=CCC4[C@@]5(C)CCC(O)C(C)(C)C5CC[C@@]43C)C2C1 (stereo partly specified) 7.09%
O=c1[nH]c(=O)n([C@H]2C[C@@H](O)[C@@H](CO)O2)cc1C=CBr 4.91% [at 75.8 µM]
COc1ccc(C(=O)N2CCC3(CCCN(Cc4ccncc4)C3)CC2)cc1 12.5%
COc1ccc(Oc2ncc3nc(-c4cc(F)cc(F)c4)c(=O)n(C4CC4)c3n2)cc1 11.5%
CC(C)NC(=O)N1CC[C@@]2(CCCN(C(=O)c3csnn3)C2)C1 19.7%
C=C[C@](C)(O)CCC=C(C)C 13.3%
